The supplement of paper PMC10338343
± gives the standard deviation. The list shows a part of the results, in another mix than the full data.

Tested on: MIWI (PIWIL1) piRISC loaded with L1MC piRNA (30 nt)
Assay: pre-steady-state target cleavage rate (min^-1); MIWI and MILI are mouse PIWI proteins and EfPiwi is from a freshwater sponge; tags in brackets are library labels; higher = faster piRNA-guided slicing of the target
Conditions: guide: L1MC piRNA 5'p-UAACUAAAUACUAUGCAAGCUGUAGGUCCU
Method in brief: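 In Cleave-'n-Seq, a transcribed, DNA-blocked target RNA library (0.1 nM) was combined with 1 nM active affinity-purified piRISC bearing one synthetic guide, with or without 500 nM GTSF1 partner protein. Reactions ran in HEPES–potassium acetate buffer at 33 °C for 0–8 or 0–960 min. Uncleaved targets were sequenced and normalised to depth and to weakly complementary targets, three trials were pooled, and k3 was capped at 0.0001 min^-1. The pre-steady-state cleavage rate was obtained by fitting a burst-and-steady-state model.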

[1] = auxiliary factor: 500 nM mouse GTSF1
[2] = auxiliary factor: none (no GTSF1)

Sequence | pre-steady-state target cleavage rate [1] | pre-steady-state target cleavage rate [2]
UCCUGGUACACCUUGCAUAGUAUUAAGUUA | 0.29 ± 0.087 | 0.00503 ± 0.0036
UCCUCCUACAGCUUGCAUAGUAUAAAGUUA | 0.325 ± 0.028 | 0.0107 ± 0.0028
UGGACCUUCAGCUUGCAUAGUAUUUAGUUA | 1.45 ± 0.067 | 0.069 ± 0.011
UGGACCUACACGAUGCAUAGUAUUUAGUUA | 0.78 ± 0.051 | 0.00583 ± 0.0026
UCCUGGUACAGCUUGCAUAGUAUUUGAGUUA | 0.325 ± 0.043 | 0.0156 ± 0.0057
UCCUGGAUGUGCUUGCAUAGAAUUUAGAUA | 0.0127 ± 0.0058 | 0.00393 ± 0.0028
UCCACCCACAGCUUGCAUAGUAUUUAGUUA | 0.787 ± 0.052 | 0.0508 ± 0.0088
UCCUGCUACAGCUUGCAAAGUAUUUAGAUA | 0.297 ± 0.036 | 0.00879 ± 0.0018
UCCUGGAUGAGCUUGCUUAGUAAUUAGUUA | 0.0955 ± 0.011 | 0.007 ± 0.0037
UCCUGGAUCAGUUGCAUAGUAUUUAGUUA | 0.257 ± 0.036 | 0.00383 ± 0.0022
AGGACCUACAGCUUGCAUAGUAUUAAGUAA | 0.421 ± 0.044 | 0.0136 ± 0.0047
UCCUGGUACAGCUUGCUAGUAUUUAGUUA | 0.019 ± 0.0058 | 0.00454 ± 0.0026
AGGACCUACAGCUUGCAUAGUAUAUACUUA | 0.254 ± 0.048 | 0.00911 ± 0.0026
UGGACCUACAGCUUGCAUUCUAUUUAGUUA | 0.268 ± 0.025 | 0.0115 ± 0.0044
UCGACCUACACCUUGCAUAGUAUUAAGUUA | 0.672 ± 0.07 | 0.0228 ± 0.0049
UCCUCCUACAGCUUGCAUAGAAUUUAGAAA | 0.256 ± 0.046 | 0.00309 ± 0.0023
AGGACCUACAGGUUGCAUAGUAUUUUGUUA | 0.842 ± 0.083 | 0.0435 ± 0.0083
UCCUGGAACAGCUUGAUAGUAUUUAGUUA | 0.377 ± 0.032 | 0.00679 ± 0.0028
UGGACCUUCAGCAUGCAUAGUAUUUAGUUA | 1.24 ± 0.066 | 0.0343 ± 0.0072
UCCUGGAUGUGCUUGCAUAGUAUUUACUAA | 0.038 ± 0.014 | 0.00585 ± 0.0025
UCCUCCUACAGCUUGCAUAGGAUUUAGUUA | 0.0453 ± 0.0078 | 0.00636 ± 0.0018
UCCUGGAUCGGCUUGCAUAGUAUUUAGUUA | 1.04 ± 0.072 | 0.0337 ± 0.0079
UCCUGGAUGUUCUUGCAUAGUAUUUAGUUA | 0.137 ± 0.014 | 0.0206 ± 0.0051

Sequence | pre-steady-state target cleavage rate [1] | pre-steady-state target cleavage rate [2]
ACGACCUAGAGCUUGCAUAGUAUUUAGUUA | 1.15 ± 0.065 | 0.0682 ± 0.011
UCGACCUACACGAUGCAUAGUAUUUAGUUA | 1.04 ± 0.057 | 0.00582 ± 0.0015
UCCUGCUACAGCUAUGCAUAGUAUUUAGUUA | 0.642 ± 0.045 | 0.0116 ± 0.0033
UGGACCAACACCUUGCAUAGUAUUUAGUUA | 1.07 ± 0.044 | 0.05 ± 0.0097
UCCUGGAUGUGCCUUGCAUAGUAUUUAGUUA | 0.421 ± 0.039 | 0.0231 ± 0.0067
UCCUGGAUGUCCUUGCAAGUAUUUAGUUA | 0.00413 ± 0.0034 | 0.00275 ± 0.0026
UCGGACCUACAGCUUGCAUAGUAUUUAGUUA | 1.37 ± 0.097 | 0.0616 ± 0.01
AGGACCUACAGUUUGCAUAGUAUUUAGUUA | 1.25 ± 0.073 | 0.0653 ± 0.0093
UCGACCUACAGCUUGCAUCGUAUUUAGUUA | 0.546 ± 0.016 | 0.0292 ± 0.0057
UCGACCUACAGCUUGCCUAGUAUUUAGUUA | 1.14 ± 0.046 | 0.0457 ± 0.0085
UCCUGCUAACAGCUUGCAUAGUAUUUAGUUA | 0.617 ± 0.052 | 0.0487 ± 0.0083
UCCUGGAUGUGCUAGCAUAGUAAUUAGUUA | 0.00758 ± 0.0032 | 0.00345 ± 0.0031
UCCUGCUUCAGCUUGCAUAGUAUUUACUUA | 0.346 ± 0.036 | 0.03 ± 0.0065
UCCUGGAUGAGCUUGCAUAGUAUUAACUUA | 0.00978 ± 0.0045 | 0.00409 ± 0.0028
AGGACCUACAGCUGUGCAUAGUAUUUAGUUA | 1.29 ± 0.063 | 0.0583 ± 0.012
AGGACGAUCAGCUUGCAUAGUAUUUUCAAA | 0.278 ± 0.043 | 0.00598 ± 0.002
UCCUGGAUGAGCUUGCUUAGUAUUUAGAAA | 0.0699 ± 0.02 | 0.0037 ± 0.0031
UGGACCUACAGGUUGCUUAGUAUUUAGUUA | 1.04 ± 0.061 | 0.0177 ± 0.0036
UCCACCUACUGCUUGCAUAGUAUUUAGAAA | 0.171 ± 0.03 | 0.00434 ± 0.002
UCCUGGAUGAGCUUGCAUAGUAUAAAGUUA | 0.313 ± 0.037 | 0.00736 ± 0.0033
UGGACCAACUGCUUGCAUAGUAUUUAGUUA | 1.27 ± 0.055 | 0.0655 ± 0.011
UCCUGGAUCACCUUGCAUAGUAUUUACAAA | 0.15 ± 0.037 | 0.00391 ± 0.0029
UCCUGGAUGAGCUUGCUUAGUAUUUACUUA | 0.254 ± 0.042 | 0.0202 ± 0.005
